Results published in the supplement of paper PMC4604168 (melanoma cell lines).
Some of the results follow. Most values come without repeats; read them as rough.

How the values were obtained:
Assay in all cases: cell count relative to DMSO control; melanoma cells; higher = more viable cells
Conditions in all cases: library dose: low library concentration; 72 h
MZ2-MEL = system: MZ2-MEL
MeWo = system: MeWo
RPMI7951 = system: RPMI7951
RVH-421 = system: RVH-421
SkMel28 = system: SkMel28
SkMel2 = system: SkMel2
SkMel30 = system: SkMel30
SkMel5 = system: SkMel5
UACC257 = system: UACC257
UACC62 = system: UACC62
WM115 = system: WM115
WM1716 = system: WM1716
WM1745 = system: WM1745
WM3526 = system: WM3526
WM3619 = system: WM3619
WM451Lu = system: WM451Lu
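Further: cell number obtained by counting DAPI-stained nuclei in high-throughput microscope images with image analysis software, screen run in 1,536-well plates.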

Structure (SMILES) | cell count (MZ2-MEL) | cell count (MeWo) | cell count (RPMI7951) | cell count (RVH-421) | cell count (SkMel28) | cell count (SkMel2) | cell count (SkMel30) | cell count (SkMel5) | cell count (UACC257) | cell count (UACC62) | cell count (WM115) | cell count (WM1716) | cell count (WM1745) | cell count (WM3526) | cell count (WM3619) | cell count (WM451Lu)
O=C(/C=C/c1cccnc1)NCCCCC1CCN(C(=O)c2ccccc2)CC1 + Cc1cc(SCc2sc(-c3ccc(C(F)(F)F)c(F)c3)nc2C)ccc1OCC(=O)O [GW0742] (first compound 0.01 µM, partner dose 2 µM) | 42.4% | 97.6% | 105% | 43.4% | 87.4% | 28.6% | 105% | 87% | 92.5% | 111% | 88% | 95.1% | 93.9% | 110% | 91.5% | 104%
CS(=O)(=O)CCNCc1ccc(-c2ccc3ncnc(Nc4ccc(OCc5cccc(F)c5)c(Cl)c4)c3c2)o1 [lapatinib] + C/C(O)=C(\C#N)C(=O)Nc1cc(Br)ccc1Br [LFM-A13] (first compound 0.8 µM, partner dose 2 µM) | 96.2% | 97.3% | 86.4% | 84.6% | 72.4% | 98% | 100% | 83.1% | 87.4% | 93.3% | 99.1% | 104% | 102% | 80.3% | 112% | 90.4%
CC(=O)c1c(C)c2cnc(Nc3ccc(N4CCNCC4)cn3)nc2n(C2CCCC2)c1=O [palbociclib] + C/C(O)=C(\C#N)C(=O)Nc1cc(Br)ccc1Br [LFM-A13] (first compound 0.04 µM, partner dose 2 µM) | 74.3% | 80.5% | 60% | 73.3% | 64.7% | 74.7% | 75.1% | 68.5% | 50.2% | 60.3% | 69.2% | 53.1% | 86.5% | 62.5% | 70.2% | 65.9%
CCCCCCCCc1ccc(CCC(N)(CO)CO)cc1 [fingolimod] + C/C(O)=C(\C#N)C(=O)Nc1cc(Br)ccc1Br [LFM-A13] (first compound 2 µM, partner dose 2 µM) | 96.4% | 86.9% | 72.7% | 85.8% | 80.2% | 93.9% | 99.3% | 78.9% | 111% | 68.2% | 86.1% | 66.3% | 87.7% | 82.9% | 89.8% | 69.6%
Cn1sc(=O)n(Cc2ccccc2)c1=O + O=C(Oc1ccc([N+](=O)[O-])cc1)N1CCC(C(O)(c2ccc3c(c2)OCO3)c2ccc3c(c2)OCO3)CC1 [JZL184] (first compound 0.4 µM, partner dose 1 µM) | 99.8% | 89% | 97.5% | 108% | 90.3% | 92.8% | 97.1% | 99.5% | 92.3% | 94.5% | 94.6% | 77.9% | 114% | 91.7% | 95% | 89.3%
NC1(c2ccc(-c3nc4ccn5c(=O)[nH]nc5c4cc3-c3ccccc3)cc2)CCC1 + Cc1cc(SCc2sc(-c3ccc(C(F)(F)F)c(F)c3)nc2C)ccc1OCC(=O)O [GW0742] (first compound 0.4 µM, partner dose 2 µM) | 93.2% | 83.1% | 82.6% | 109% | 76.8% | 82.4% | 91.5% | 92.7% | 101% | 71.2% | 75.5% | 96.3% | 96.1% | 81.1% | 88.7% | 116%
CC(=O)O[C@@]12CO[C@@H]1C[C@H](O)[C@@]1(C)C(=O)[C@H](O)C3=C(C)[C@@H](OC(=O)[C@H](O)[C@@H](NC(=O)OC(C)(C)C)c4ccccc4)C[C@@](O)([C@@H](OC(=O)c4ccccc4)[C@H]21)C3(C)C [Docetaxel] + Cc1cc(SCc2sc(-c3ccc(C(F)(F)F)c(F)c3)nc2C)ccc1OCC(=O)O [GW0742] (first compound 0.0001 µM, partner dose 2 µM) | 56.2% | 51.2% | 39.6% | 75.4% | 47.4% | 43.8% | 32.4% | 71.4% | 48.1% | 33.7% | 61.9% | 37.5% | 58.6% | 44.9% | 52.1% | 62.8%
Nc1ncn([C@H]2C[C@H](O)[C@@H](CO)O2)c(=O)n1 [decitabine] + Cc1cc(SCc2sc(-c3ccc(C(F)(F)F)c(F)c3)nc2C)ccc1OCC(=O)O [GW0742] (first compound 0.1 µM, partner dose 2 µM) | 91.2% | 89.9% | 80% | 97.4% | 94.7% | 97.3% | 104% | 113% | 111% | 76.9% | 84.3% | 88.2% | 81.7% | 112% | 116% | 115%
NC(=O)c1ccc(N(C(N)=O)c2c(F)cccc2F)nc1-c1ccc(F)cc1F + O=C(Oc1ccc([N+](=O)[O-])cc1)N1CCC(C(O)(c2ccc3c(c2)OCO3)c2ccc3c(c2)OCO3)CC1 [JZL184] (first compound 0.4 µM, partner dose 1 µM) | 102% | 94.3% | 98.6% | 88.1% | 113% | 114% | 100% | 115% | 93.5% | 94.6% | 83.8% | 104% | 89.7% | 81.3% | 106% | 96.2%
Nc1nc(F)nc2c1ncn2[C@@H]1O[C@H](CO)[C@@H](O)[C@@H]1O [fludarabine] + O=C(Oc1ccc([N+](=O)[O-])cc1)N1CCC(C(O)(c2ccc3c(c2)OCO3)c2ccc3c(c2)OCO3)CC1 [JZL184] (first compound 0.2 µM, partner dose 1 µM) | 103% | 31.5% | 85.7% | 86.2% | 73.2% | 6.97% | 14.6% | 54.6% | 93.9% | 85.6% | 101% | 104% | 100% | 28.1% | 93.9% | 41%
C[C@@H](N)c1ccc(C(=O)Nc2ccnc3[nH]ccc23)cc1 + Cc1cc(SCc2sc(-c3ccc(C(F)(F)F)c(F)c3)nc2C)ccc1OCC(=O)O [GW0742] (first compound 0.4 µM, partner dose 2 µM) | 80% | 82.7% | 76.7% | 72.1% | 69.4% | 99.6% | 110% | 92.1% | 55% | 66.5% | 102% | 58.3% | 91.7% | 102% | 98.1% | 91.1%
COc1cc([C@@H]2c3cc4c(cc3[C@@H](O[C@@H]3O[C@@H]5CO[C@@H](C)O[C@H]5[C@H](O)[C@H]3O)[C@H]3COC(=O)[C@H]23)OCO4)cc(OC)c1O [etoposide] + O=C(Oc1ccc([N+](=O)[O-])cc1)N1CCC(C(O)(c2ccc3c(c2)OCO3)c2ccc3c(c2)OCO3)CC1 [JZL184] (first compound 0.02 µM, partner dose 1 µM) | 92.9% | 104% | 95.2% | 94.3% | 94.5% | 90.8% | 89.6% | 88.2% | 107% | 76.3% | 86.1% | 93.4% | 92.4% | 92.2% | 85.7% | 99.8%
CNC(=O)c1cc(Oc2ccc(NC(=O)Nc3ccc(Cl)c(C(F)(F)F)c3)cc2)ccn1 [sorafenib] + Cc1cc(SCc2sc(-c3ccc(C(F)(F)F)c(F)c3)nc2C)ccc1OCC(=O)O [GW0742] (first compound 0.4 µM, partner dose 2 µM) | 93.6% | 96.4% | 96.9% | 119% | 90.3% | 114% | 89.2% | 110% | 103% | 95.7% | 106% | 94.9% | 71.5% | 85.2% | 109% | 99%
CN(c1ncccc1CNc1nc(Nc2ccc3c(c2)CC(=O)N3)ncc1C(F)(F)F)S(C)(=O)=O + C/C(O)=C(\C#N)C(=O)Nc1cc(Br)ccc1Br [LFM-A13] (first compound 0.08 µM, partner dose 2 µM) | 92.7% | 87.1% | 58.7% | 89.7% | 77.5% | 96.1% | 91.5% | 71.3% | 92.5% | 81.6% | 85.3% | 83.7% | 90.7% | 86.8% | 76% | 74%
Nc1ncn([C@H]2C[C@H](O)[C@@H](CO)O2)c(=O)n1 [decitabine] + O=C(Oc1ccc([N+](=O)[O-])cc1)N1CCC(C(O)(c2ccc3c(c2)OCO3)c2ccc3c(c2)OCO3)CC1 [JZL184] (first compound 0.1 µM, partner dose 1 µM) | 93.2% | 103% | 75.8% | 62.3% | 75.9% | 102% | 73.8% | 84.8% | 98% | 74% | 78.1% | 82.2% | 113% | 86% | 96.5% | 97.4%
Cn1sc(=O)n(Cc2ccccc2)c1=O + Cc1cc(SCc2sc(-c3ccc(C(F)(F)F)c(F)c3)nc2C)ccc1OCC(=O)O [GW0742] (first compound 0.4 µM, partner dose 2 µM) | 95.9% | 106% | 82.7% | 125% | 94.2% | 99.4% | 93.1% | 107% | 104% | 93% | 99.9% | 102% | 78.2% | 103% | 92.1% | 98.4%
CS(=O)(=O)CCNCc1ccc(-c2ccc3ncnc(Nc4ccc(OCc5cccc(F)c5)c(Cl)c4)c3c2)o1 [lapatinib] + Cc1cc(SCc2sc(-c3ccc(C(F)(F)F)c(F)c3)nc2C)ccc1OCC(=O)O [GW0742] (first compound 0.8 µM, partner dose 2 µM) | 96.9% | 107% | 115% | 98.9% | 99.5% | 94.8% | 111% | 105% | 95.2% | 91.5% | 100% | 94.6% | 90.1% | 104% | 88.2% | 108%
